{
  "source": "PubChem BioAssay AID686978",
  "about": "(National Center for Advancing Translational Sciences (NCATS), 2013)",
  "note": "Screen size: about 420,000 compounds; about 64,000 (15%) were called active. The inconclusive results got no clear call from the source; some entries with a clear call stand among them for comparison. Calls follow the shape of the dose curve; as a rule, active = well fitted inhibition curve with a large enough effect; inconclusive = small, poorly fitted or top-dose-only effect; inactive = flat fitted curve, though single readings scatter. Potencies of inconclusive entries are left out as doubtful fits. % is scaled to controls: 0 for no effect and ±100 for the full control effect; potency is read from the fitted curve at half-maximal effect; tags tell the direction and shape of the fitted curve.",
  "data": [
    {"assay": "qHTS for Inhibitors of human tyrosyl-DNA phosphodiesterase 1 (TDP1): qHTS in cells in absence of CPT; also: nearly all actives have a fitted effect of over 55% in size", "conditions": "DT40 Tdp1-/- hTDP1 cells, no CPT, ATP luminescence, 48 h; activity change, negative = growth inhibition: at 46.2 µM (top of the series) unless noted", "outline": "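Growth of hTDP1-complemented DT40 Tdp1-knockout cells is measured by ATP luminescence after at least 48 hr compound exposure at 37 °C, with DMSO substituting for the 20 nM CPT used in the parallel screen.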", "values": [
      {"compound": "O=C(O)CN(CCc1ccccc1)S(=O)(=O)c1ccccc1", "Potency": "inactive"},
      {"compound": "CC1CCN(c2ccc3nnc(CCC(=O)Nc4ccc(F)c(F)c4)n3n2)CC1", "Potency": "inconclusive [inhibitor, single point]"},
      {"compound": "Cc1ccc(C(=O)NCC(=O)OCC(=O)Nc2ccccc2[N+](=O)[O-])cc1", "Potency": "inactive"},
      {"compound": "Cc1cccc(NC(=O)CSc2nc3ccccc3nc2N2CC(C)OC(C)C2)c1", "note": "(configuration not stated)", "Potency": "inconclusive [inhibitor, single point]"},
      {"compound": "Oc1ccccc1CN1CCCC(N2CCc3ccccc3C2)C1", "note": "(configuration not stated)", "Potency": "inconclusive [inhibitor, single point]"},
      {"compound": "O=C(NC(=S)Nc1ccc(N2CCOCC2)cc1)c1ccccc1", "Potency": "inconclusive [inhibitor, single point]"},
      {"compound": "CC(=O)c1c(C)[nH]c(C(=O)Nc2ccccc2N2CCOCC2)c1C", "Potency": "inconclusive [inhibitor, full curve, poor fit]"},
      {"compound": "CCCCN1CCCCC1C(=O)Nc1c(C)cc(C)cc1C", "note": "(configuration not stated)", "Potency": "inconclusive [inhibitor, single point]"},
      {"compound": "CC(=O)Nc1ccc(NC(=O)CSc2nc(C)nc3sc(C)c(C)c23)cc1", "Potency": "inconclusive [inhibitor, single point]"},
      {"compound": "CCCCNC(=O)C1(C)CCN1C(=O)c1cncc(Br)c1", "note": "(configuration not stated)", "Potency": "inactive"},
      {"compound": "CCC1CCCCN1C(=O)CSc1nc(-c2ccc(OC)cc2)cc(C(F)(F)F)n1", "note": "(configuration not stated)", "Potency": "active: 9.2 µM"},
      {"compound": "CCCCc1ccc(NC(=O)N2CCN(c3cc(C)nc4ccccc34)CC2)c(C)c1", "Potency": "inconclusive [inhibitor, single point]"},
      {"compound": "CN1CCN(S(=O)(=O)c2cccc(C(=O)Nc3cccc(S(N)(=O)=O)c3)c2)CC1", "Potency": "inactive"},
      {"compound": "NNC(=O)c1cc2cc(Oc3ccccc3)ccc2[nH]1", "Potency": "inactive"},
      {"compound": "Nc1ccc(-c2sc(N)nc2-c2ccccc2)cc1", "Potency": "inconclusive [inhibitor, partial curve, poor fit]"},
      {"compound": "O=C(NNC(=O)C1CCCO1)c1ccc(Cl)cc1", "note": "(configuration not stated)", "Potency": "inactive"},
      {"compound": "O=C(CCl)Nc1c[nH]c(=O)[nH]c1=O", "Potency": "inconclusive [inhibitor, single point]"},
      {"compound": "COc1cc(/C=C/C(=O)O)cc(S(=O)(=O)Nc2ccccc2C(=O)NCCc2ccccc2)c1OC", "Potency": "inactive"},
      {"compound": "O=C(CSc1nc2ccc(Cl)cc2o1)NCc1ccc2c(c1)OCO2", "Potency": "inconclusive [inhibitor, single point]"},
      {"compound": "O=C(COC(=O)c1ccccc1Cl)NCCC1=CCCCC1", "activity change, negative = growth inhibition": "inconclusive: -31.8% [inhibitor]"},
      {"compound": "Cc1ccc(S(=O)(=O)NC(=O)C2(C)CCN2C(=O)c2cccc(F)c2)nc1", "note": "(configuration not stated)", "Potency": "inactive"},
      {"compound": "CCN(CC(=O)NCc1ccc(F)cc1)C(=O)Cc1ccc(OC)cc1", "Potency": "inconclusive [inhibitor, single point]"},
      {"compound": "O=C(O)COc1ccccc1C=NNC(=O)c1ccccc1NS(=O)(=O)c1cccs1", "Potency": "inactive"},
      {"compound": "CCCCCCN1C[C@@H](n2cc(COC(=O)c3ccccc3)nn2)[C@H](O)C[C@@H]1c1ccc(C)cc1", "Potency": "active: 11.6 µM"},
      {"compound": "CCn1cc2nc(SCC(=O)Nc3cccc(Cl)c3C)n(Cc3ccc(Cl)cc3)c(=O)c2n1", "Potency": "inconclusive [inhibitor, partial curve]"},
      {"compound": "COc1ccc(Nc2nc(C)cc(C)n2)cc1Cl", "Potency": "inconclusive [inhibitor, partial curve]"},
      {"compound": "C[C@H](CO)N1C[C@H](C)[C@@H](CN(C)C(=O)c2ccccc2)Oc2cc(C#C[C@@H](C)O)ccc2S1(=O)=O", "Potency": "inactive"},
      {"compound": "Cc1cccc(-c2ccc3c(c2)C2CC3CCN2C)c1", "note": "(configuration not stated)", "Potency": "inconclusive [inhibitor, single point]"},
      {"compound": "COc1ccc(/C=C2/SC(=S)N(CCCC(=O)N3CCN(C)CC3)C2=O)cc1", "Potency": "active: 20.6 µM"},
      {"compound": "CC1=C(C(=O)N2CCOCC2)CC(CC(=O)NCc2cccc3ccccc23)C(=O)N1Cc1ccccc1", "note": "(configuration not stated)", "Potency": "inconclusive [inhibitor, single point]"},
      {"compound": "CCOc1ccc(NC(=O)Cn2cc(C(=O)c3ccccc3)c(=O)c3cc(OC)ccc32)cc1", "Potency": "inconclusive [inhibitor, partial curve]"},
      {"compound": "COc1cc(/C=N/Nc2ccccc2C(F)(F)F)ccc1O", "Potency": "inconclusive [inhibitor, single point]"},
      {"compound": "COc1cccc([C@@H]2CC=C(C(=O)O)[C@H](c3ccc(Br)cc3)N2S(=O)(=O)c2ccc(C)cc2)c1", "Potency": "inactive"},
      {"compound": "CC(C)(CN1CCN(Cc2ccccc2)CC1)NS(=O)(=O)c1ccccc1", "Potency": "inconclusive [inhibitor, single point]"},
      {"compound": "CCCNC(=O)Cn1c(=O)oc2cc(S(=O)(=O)N3CC(C)CC(C)C3)ccc21", "note": "(configuration not stated)", "activity change, negative = growth inhibition": "inconclusive: -31.6% [inhibitor]"},
      {"compound": "O=C(CSc1nnc2ccc(-c3ccccn3)nn12)Nc1ccc(F)cc1F", "Potency": "inactive"},
      {"compound": "CCCCCCCCCCNC(=O)C(=O)Nc1ccccn1", "activity change, negative = growth inhibition": "inconclusive: -32.2% [inhibitor]"},
      {"compound": "COc1ccccc1-n1c(CNc2ccc(F)cc2)nnc1SCC(=O)Nc1cc(C)on1", "Potency": "inactive"},
      {"compound": "CCOC(=O)c1ccc(NC(=O)c2cc3ccccc3o2)cc1", "Potency": "inconclusive [inhibitor, single point]"},
      {"compound": "O=C1NC(Cc2ccc(O)cc2)c2nc3ccccc3c(=O)n2-c2ncccc21", "note": "(configuration not stated)", "activity change, negative = growth inhibition": "inconclusive: -27.1% [inhibitor]"},
      {"compound": "CCOC(=O)c1oc2c(CN3CCN(C)CC3)c(O)c(CC)cc2c(=O)c1-c1nc2ccccc2s1", "Potency": "inactive"},
      {"compound": "COc1cccc(-c2cncnc2NCCN2CCOCC2)c1", "Potency": "active: 2.91 µM"},
      {"compound": "CCOC(=O)c1c(C)oc2cc(Sc3ccccc3)c(O)c(O)c12", "Potency": "active: 25.9 µM"},
      {"compound": "Cc1cccc(-c2nc3ccccc3c(=O)n2NC(=O)Cc2ccc(Cl)cc2)c1", "Potency": "inconclusive [inhibitor, single point]"},
      {"compound": "COC(=O)c1cn(NC(=O)c2ccc([N+](=O)[O-])c(C)c2)c(=O)c2ccccc12", "Potency": "inactive"},
      {"compound": "CCN1C(=O)c2ccccc2S(=O)c2ccc(C(=O)N3CCN(c4cccc(Cl)c4)CC3)cc21", "note": "(configuration not stated)", "Potency": "active: 18.4 µM"},
      {"compound": "COc1c(OC(C)=O)ccc(/C=C/c2ccc3cccc(OCc4ccccc4)c3n2)c1[N+](=O)[O-]", "Potency": "active: 14.6 µM"},
      {"compound": "CCS(=O)(=O)c1ccc(C(=O)NC2CC2)c(Cl)c1Cl", "Potency": "inactive"},
      {"compound": "CCOC(=O)c1[nH]c2ccccc2c1NC(=O)c1ccc(S(=O)(=O)N2CCCC2)cc1", "Potency": "inconclusive [inhibitor, single point]"},
      {"compound": "Cc1[nH][nH]c(=O)c1C(c1ccc2c(c1)OCO2)c1c(C)[nH][nH]c1=O", "Potency": "inconclusive [inhibitor, single point]"},
      {"compound": "CCc1cccc(C)c1NC(=O)CC(C)(C)CC(=O)O", "Potency": "inconclusive [inhibitor, single point]"},
      {"compound": "COc1ccc(N(CC(=O)NCCC2=CCCCC2)S(=O)(=O)c2ccc(C)cc2)cc1OC", "Potency": "inconclusive [inhibitor, single point]"},
      {"compound": "O=C(CSc1nnnn1-c1ccc(O)cc1)Nc1ccc(N2CCOCC2)c(Cl)c1", "Potency": "inconclusive [inhibitor, single point]"},
      {"compound": "CC(C)NC(=O)c1cc(C2CCCCN2C(=O)c2ccc(C#N)cc2)on1", "note": "(configuration not stated)", "Potency": "inactive"},
      {"compound": "CCOC(=O)C1=C(O)/C(=C\\c2ccc(CNS(=O)(=O)c3ccc(Br)cc3)o2)N=C1C", "activity change, negative = growth inhibition": "inconclusive: -37.6% [inhibitor]"},
      {"compound": "O=C1CC(c2cccc(O)c2)Oc2ccccc21", "note": "(configuration not stated)", "Potency": "inconclusive [inhibitor, single point]"},
      {"compound": "CCC(=O)NC(NC(=S)Nc1ccc(S(N)(=O)=O)cc1)C(Cl)(Cl)Cl", "note": "(configuration not stated)", "Potency": "inactive"},
      {"compound": "CCOC(=O)c1c(C)[nH]c(C(=O)OCC(=O)NC(C)C)c1C", "activity change, negative = growth inhibition": "inconclusive: -35.8% [inhibitor]"},
      {"compound": "CCOC(=O)Cc1c[nH]c(=S)[nH]c1=O", "Potency": "inactive"},
      {"compound": "O=c1[nH]cc(CCc2ccccc2)c2ncncc12", "Potency": "inconclusive [inhibitor, partial curve, poor fit]"},
      {"compound": "O=C(CCNc1cc(Cl)cc(Cl)c1)c1ccco1", "Potency": "active: 13 µM"},
      {"compound": "Cc1nc2ccccc2c(=O)n1-c1ccc(NS(=O)(=O)c2ccc(F)cc2F)cc1", "Potency": "inactive"},
      {"compound": "Cc1ccc(-n2ncc3c(=O)n(Cc4cccc(C(F)(F)F)c4)cnc32)cc1C", "Potency": "inactive"},
      {"compound": "CC1=C(C(=O)Nc2ccccc2C)C(c2ccc[nH]2)n2ncnc2N1", "note": "(configuration not stated)", "Potency": "inconclusive [inhibitor, partial curve]"},
      {"compound": "COCCn1c(=O)c2c(nc3n2CC(C)CN3Cc2ccccc2)n(C)c1=O", "note": "(configuration not stated)", "Potency": "inactive"},
      {"compound": "COc1ccc(N(C)S(=O)(=O)c2ccc(Cl)c(C(=O)NNC(=O)c3ccccc3O)c2)cc1", "Potency": "inactive"},
      {"compound": "COc1ccccc1CN1CCC2(CC1)CCN(C(=O)c1cccn1C)CC2", "Potency": "inconclusive [inhibitor, full curve, poor fit]"},
      {"compound": "Cc1ccc(-c2noc(CNS(=O)(=O)c3ccccc3)n2)cc1", "Potency": "inconclusive [inhibitor, single point]"},
      {"compound": "CCCCn1c(SCc2ccccc2C#N)nc2c(sc3ccccc32)c1=O", "Potency": "inconclusive [inhibitor, full curve, poor fit]"},
      {"compound": "Cc1cccc(CC(=O)Nc2cccc(-c3cn4cccnc4n3)c2)c1", "Potency": "inconclusive [inhibitor, single point]"},
      {"compound": "COc1ccc(N2CCN(C(=O)c3cccnc3SCc3cccc(Br)c3)CC2)cc1", "Potency": "inconclusive [inhibitor, single point]"},
      {"compound": "COc1ccc(CCNC(=O)c2ccc(OCc3c(C)noc3C)cc2)cc1OC", "Potency": "inconclusive [inhibitor, single point]"}
    ]}
  ]
}
